The values that follow come from patent US20250223331A1, “GLP-1/GIP DUAL-TARGETED POLYPEPTIDE AND FUSION PROTEIN AND APPLICATIONS THEREOF” (SUNSHINE LAKE PHARMA CO., LTD., priority 2021, published 2025).

Entries after “also recorded” stand apart in the source; their conditions may differ. Marks after values point to notes of the source that are not given here.

In one experiment the test system is db/db mice. The experiment is described as follows: in vivo efficacy in db/db mouse model, blood glucose. On the procedure: Methods: 7-8 week old db/db mice were randomly divided into 3 groups (Model group, Semaglutide group, HEC-G20 group) according to blood glucose and body weight, with 9 mice in each group. For the groups of Semaglutide (Semaglutide was purchased from Novo Nordisk, lot number was JP52092) and HEC-G20, the corresponding drug was administered subcutaneously into the mice at a dose of 10 nmol/kg for each group, and for the Model group, the corresponding vehicle was injected subcutaneously. The Semaglutide group was dosed once a day, and the HEC-G20 group was dosed twice a week for a total of 4 weeks, and animal blood glucose was tested before each dose.

The test system of another experiment is GLP-1R or GIPR. The experiment in a line: in vitro agonistic activity of fusion proteins, summary statement. The class given is cell-based. The settings on record: cAMP, GLP-1R / GIPR cells. On the procedure:
The digested product was electrophoresed on 1% agarose gel and the target band was cut out with a clean blade, then a gel recovery kit was used to recover the target fragment. The specific experimental operations are carried out according to the kit instructions; • 3) The target fragment enzymatic digestion recovery product and vector plasmid pcDNA3.1 fragment were connected through T4 ligase and transformed into DH5a competent cells, then single colonies were isolated by spreading on plates, and the transformants were selected and expanded for enzyme digestion verification and sequencing verification. • 4) 200 mL of the bacterial liquid obtained in inoculation step 3) and verified by sequencing to contain the fusion protein of the target product was used for plasmid extraction. The kit used was PureLink HiPure Plasmid Maxiprep Kit, and according to the instructions. After the plasmid was verified to be correct by PCR and enzyme digestion, pvuI restriction enzyme was used for linearization. Finally, the ethanol precipitation method was used to recover the plasmid. • 5) The host cells were HEK293, one day before transfection, the cells were spread into a 6-well plate at a density of 2×10^6 cells/well, and the addition volume was 1 mL/well. The recovered linearized plasmid was transfected into HEK293 cells using Lipofectamine 3000 transfection method, then G418 was added to screen to obtain mixed strains, single clones were obtained by limiting dilution and isolation, and the activity was tested and verified.
The cAMP produced by the recipient cells was detected by a cAMP detection kit (Cisbio, 62AM6PEC) according to the steps described in the operating instructions. […] If the mixture was not completely melted within 1.5 min, the cells were added dropwise to a 15 mL centrifuge tube containing 8 mL warm culture medium on a clean bench, then centrifuged at 900 rpm for 5 min, the supernatant was discarded, and the cells were re-suspended with 1 mL complete culture medium (15 times by pipetting).

Experiment [1] concerns normal C57BL/6 mice. The experiment is described as follows: glucose tolerance in normal C57BL/6 mice (Example 7). The following applies: 3 nmol/kg s.c. single dose, 72 h after dose, 2 g/kg glucose i.p. It counts as in vivo.
In experiment [2] the test system is normal C57BL/6 mice. Described as above. The class given is in vivo. The settings on record: for Blood glucose value 0 min / Blood glucose value 15 min / Blood glucose value 30 min / Blood glucose value 60 min: 3 nmol/kg s.c. single dose, 72 h after dose, 2 g/kg glucose i.p.; for improving glucose tolerance compared with positive control Dulaglutide: 3 nmol/kg s.c., 72 h; for effect on blood glucose level: normal C57 mice after a single dose for 72 h. The protocol:
Experimental methods: Normal C57BL/6 mice were randomly divided into 6 groups (Vehicle group, Dulaglutide group, HEC-G123 group, HEC-G128 group, HEC-G131 group, HEC-G132 group) according to blood glucose and body weight, with 8 mice in each group. For the groups of Dulaglutide, HEC-G123, HEC-G128, HEC-G131 and HEC-G132, the corresponding drug was injected subcutaneously into the mice at a dose of 3 nmol/kg, and for the control group, the corresponding vehicle was injected subcutaneously.
After 60 h of single administration, the mice were fasted for 12 h and drank water freely. Blood was collected from the tail vein to measure the basal blood glucose value of each group, then 2 g/kg of glucose solution was injected intraperitoneally, and blood glucose was measured at 15, 30, 60, and 0 min after glucose administration. According to the blood glucose values measured at different time points, the blood glucose concentration-time curve was plotted, and the AUC0˜90min of each dose group was calculated, and the experimental results are shown in Table 6 and FIGS. 1-2.

Experiment [3] concerns normal C57BL/6 mice. The experiment is described as follows: glucose tolerance in normal C57BL/6 mice (Example 8). It counts as in vivo. On the procedure: Experimental methods: Normal C57BL/6 mice were randomly divided into 6 groups (Vehicle group, Dulaglutide group, HEC-G113 group, HEC-G122 group, HEC-G126 group, HEC-G127 group) according to blood glucose and body weight, with 8 mice in each group. For the groups of Dulaglutide (Dulaglutide purchased from Eli Lilly, lot number was D256504), HEC-G113, HEC-G122, HEC-G126 and HEC-G127, the corresponding drug was injected subcutaneously into the mice at a dose of 3 nmol/kg, and for the control group, the corresponding vehicle was injected subcutaneously.
After 60 h of single administration, the mice were fasted for 12 h and drank water freely. Blood was collected from the tail vein to measure the basal blood glucose value of each group, then 2 g/kg of glucose solution was injected intraperitoneally, and blood glucose was measured at 15, 30, 60, 90 and 0 min after glucose administration. According to the blood glucose values measured at different time points, the blood glucose concentration-time curve was plotted, and the AUC0˜90min of each dose group was calculated, and the experimental results are shown in Table 7 and FIGS. 3-4

B1: HEC-G20: fusion protein of SEQ ID NO: 13 polypeptide, linker peptide and Fc fragment (protein)
chain: YGEGTFTSDYSIYLDKKAQRDFVEWLLAGGPSSGAPPPSGGGGSGGGGSGGGGSA[here human IgG4 Fc with S228P F234A L235A (EU numbers) without letters]
Take B1: the “hypoglycemic effect” value in the experiment on db/db mice (10 nmol/kg s.c. twice a week, 4 weeks) is on record as “significantly reduce blood glucose; also recorded: significantly improve blood glucose levels”. Besides, in the experiment on db/db mice (10 nmol/kg s.c., 1.5 h), the “Random blood glucose 1.5 h” value worked out at 20.9 ± 3.3 mM. Further, the “Random blood glucose 5 h” value in the experiment on db/db mice (10 nmol/kg s.c., 5 h) turned out to be 14.8 ± 3.4 mM. Also, the “Random blood glucose 7 h” value with db/db mice (10 nmol/kg s.c., 7 h) stood at 14.2 ± 3.8 mM. In addition, in the experiment on db/db mice (10 nmol/kg s.c., Semaglutide once a day, HEC-G20 twice a week, D 0), the “Random blood glucose D 0” value was found to be 26.0 ± 4.7 mM. For the same molecule, the “Random blood glucose D 3” value in the experiment with db/db mice (10 nmol/kg s.c., Semaglutide once a day, HEC-G20 twice a week, D 3) came to 18.8 ± 4.0 mM. For the same molecule, the “Random blood glucose D 7” value in the experiment with db/db mice (10 nmol/kg s.c., Semaglutide once a day, HEC-G20 twice a week, D 7) is given as 17.3 ± 4.2 mM. Further, the “Random blood glucose D 10” value in the experiment with db/db mice (10 nmol/kg s.c., Semaglutide once a day, HEC-G20 twice a week, D 10) came to 17.2 ± 3.0 mM. Besides, the “Random blood glucose D 14” value in the experiment on db/db mice (10 nmol/kg s.c., Semaglutide once a day, HEC-G20 twice a week, D 14) came out at 20.0 ± 4.0 mM. The “Random blood glucose D 17” value with db/db mice (10 nmol/kg s.c., Semaglutide once a day, HEC-G20 twice a week, D 17) turned out to be 18.5 ± 5.2 mM. Further, the “Random blood glucose D 21” value with db/db mice (10 nmol/kg s.c., Semaglutide once a day, HEC-G20 twice a week, D 21) came to 19.4 ± 5.2 mM. Further, in the experiment with db/db mice (10 nmol/kg s.c., Semaglutide once a day, HEC-G20 twice a week, D 24), the “Random blood glucose D 24” value is given as 18.4 ± 4.8 ^a mM. Besides, in the experiment on db/db mice (after administration of 10 nmol/kg s.c.), the “time at which blood glucose value reached the lowest level” value is recorded as 7 h. For the same molecule, in the experiment with GLP-1R or GIPR, the “agonistic activity in vitro” value is recorded as “strong activity in vitro”.

B2: HEC-G132: fusion protein of SEQ ID NO: 112 polypeptide, linker peptide and Fc fragment (protein)
chain: YGEGTFTSDYSILLDKIAQRDFVEWLIAGGPSSGAPPPSGGGGSGGGGSGGGGSA[here human IgG4 Fc with S228P F234A L235A (EU numbers) without letters]
Regarding B2, in the experiment on normal C57BL/6 mice [1], the “Blood glucose value 90 min” value was 7.6 ± 0.7 mM. In the experiment on normal C57BL/6 mice [2], the “Blood glucose value 0 min” value was determined as 4.3 ± 0.9 mM, the “Blood glucose value 15 min” value came out at 15.7 ± 2.2 mM, the “Blood glucose value 30 min” value came to 12.3 ± 4.1 mM and the “Blood glucose value 60 min” value was found to be 8.4 ± 1.2 mM. Moreover, in the experiment on normal C57BL/6 mice [2], the “improving glucose tolerance compared with positive control Dulaglutide” value was “no significant difference in improving glucose tolerance” and the “effect on blood glucose level” value was “significantly reduced the blood glucose level”.

B3: HEC-G128: fusion protein of SEQ ID NO: 108 polypeptide, linker peptide and Fc fragment (protein)
chain: YGEGTFTSDYSILLDKKAQRDFIEWLLAGGPSSGAPPPSGGGGSGGGGSGGGGSA[here human IgG4 Fc with S228P F234A L235A (EU numbers) without letters]
In the case of B3, in the experiment with normal C57BL/6 mice [1], the “Blood glucose value 90 min” value is recorded as 5.6 ± 0.6 mM. Besides, in the experiment with normal C57BL/6 mice [2], the “Blood glucose value 0 min” value was 4.2 ± 1.1 mM, the “Blood glucose value 15 min” value turned out to be 11.9 ± 2.0 mM, the “Blood glucose value 30 min” value stood at 9.1 ± 1.7 mM and the “Blood glucose value 60 min” value was determined as 6.2 ± 0.9 mM. Also, in the experiment on normal C57BL/6 mice [2], the “improving glucose tolerance compared with positive control Dulaglutide” value is “more significant effect on improving glucose tolerance” and the “effect on blood glucose level” value is “significantly reduced the blood glucose level”.

B4: HEC-G123: fusion protein of SEQ ID NO: 103 polypeptide, linker peptide and Fc fragment (protein)
chain: YSEGTFTSDYSILLDKIAQREFVQWLLAGGPSSGAPPPSGGGGSGGGGSGGGGSA[here human IgG4 Fc with S228P F234A L235A (EU numbers) without letters]
As for B4, the “Blood glucose value 90 min” value in the experiment with normal C57BL/6 mice [1] came out at 5.5 ± 0.4 mM. In addition, in the experiment on normal C57BL/6 mice [2], the “Blood glucose value 0 min” value is 4.6 ± 0.7 mM, the “Blood glucose value 15 min” value is listed as 13.3 ± 1.9 mM, the “Blood glucose value 30 min” value was 8.1 ± 1.1 mM and the “Blood glucose value 60 min” value amounted to 6.6 ± 0.6 mM. In addition, in the experiment on normal C57BL/6 mice [2], the “improving glucose tolerance compared with positive control Dulaglutide” value is listed as “more significant effect on improving glucose tolerance” and the “effect on blood glucose level” value is reported as “significantly reduced the blood glucose level”.

B5: HEC-G113: fusion protein of SEQ ID NO: 93 polypeptide, linker peptide and Fc fragment (protein)
chain: HSEGTFTSDYSILLDKIAQQDFVEWLLAGGPSSGAPPPSGGGGSGGGGSGGGGSA[here human IgG4 Fc with S228P F234A L235A (EU numbers) without letters]
Regarding B5, the “Blood glucose value 0 min” value in the experiment with normal C57BL/6 mice [3] (3 nmol/kg s.c. single dose, 72 h after dose, 2 g/kg glucose i.p., 0 min) is 5.4 ± 0.7 mM. Besides, in the experiment on normal C57BL/6 mice [3] (3 nmol/kg s.c. single dose, 72 h after dose, 2 g/kg glucose i.p., 15 min), the “Blood glucose value 15 min” value was 13.8 ± 2.7 mM. In the experiment with normal C57BL/6 mice [3] (3 nmol/kg s.c. single dose, 72 h after dose, 2 g/kg glucose i.p., 30 min), the “Blood glucose value 30 min” value is listed as 13.0 ± 2.3 mM. For the same molecule, the “Blood glucose value 60 min” value in the experiment with normal C57BL/6 mice [3] (3 nmol/kg s.c. single dose, 72 h after dose, 2 g/kg glucose i.p., 60 min) came out at 8.3 ± 1.0 mM. The “Blood glucose value 90 min” value in the experiment on normal C57BL/6 mice [3] (3 nmol/kg s.c. single dose, 72 h after dose, 2 g/kg glucose i.p., 90 min) stood at 6.2 ± 0.7 mM. Further, in the experiment with normal C57BL/6 mice [3] (blood glucose concentration-time curve, 3 nmol/kg s.c. single dose, 72 h after dose), the AUC0-90 min is reported as 882.8 ± 115.2 ^a. For the same molecule, the “effect on blood glucose levels” value with normal C57BL/6 mice [3] (normal C57 mice after a single dose for 72 h) was “significantly reduced the blood glucose levels”. In addition, in the experiment on GLP-1R or GIPR, the “agonistic activity in vitro” value is “strong activity in vitro”.

B6: HEC-G131: fusion protein of SEQ ID NO: 111 polypeptide, linker peptide and Fc fragment (protein)
chain: YSEGTFTSDYSILLDKIAQRDFVEWLIAGGPSSGAPPPSGGGGSGGGGSGGGGSA[here human IgG4 Fc with S228P F234A L235A (EU numbers) without letters]
B6: the “Blood glucose value 90 min” value in the experiment with normal C57BL/6 mice [1] is 7.6 ± 1.4 mM. For the same molecule, in the experiment on normal C57BL/6 mice [2], the “Blood glucose value 0 min” value is reported as 4.0 ± 0.8 mM, the “Blood glucose value 15 min” value came to 15.6 ± 1.9 mM, the “Blood glucose value 30 min” value was 13.2 ± 2.8 mM and the “Blood glucose value 60 min” value was 9.2 ± 2.0 mM. In the experiment on normal C57BL/6 mice [2], the “improving glucose tolerance compared with positive control Dulaglutide” value is recorded as “no significant difference in improving glucose tolerance” and the “effect on blood glucose level” value was “significantly reduced the blood glucose level”.
